From patent US20260306644A1, “ANTIBODY RECRUITING MOLECULES FOR THE TREATMENT OF CORONAVIRUS DISEASE-19” (priority 2023, published 2026) come the findings set out here.

Where two headings read alike, the source gives them in different places. Positions of bridges follow the written chain, without caps; N, C: chain ends. Residues, ends and D or L forms follow the SMILES beside them. No end group written: not given here. A value given as a limit tells only on which side of the number the result lay.

This assay addresses SARS-CoV-2 Spike glycoprotein Receptor Binding Domain (RBD) (Severe acute respiratory syndrome coronavirus 2, UniProt P0DTC2). Nature of the assay: Ligand binding to SARS-CoV-2 Spike glycoprotein Receptor Binding Domain (RBD) by BLI. The conditions noted are these: biotinylated Spike RBD.
Where [1] appears, read: unit pM printed in cell, read-out: Octet SARS-CoV-2 Spike RBD Protein Binding KD (cell printed in pM).
Setting [2] is: 1:1 global fit, read-out: Octet SARS-CoV-2 Spike RBD Protein Binding KD.

With `CC[C@H](C)[C@H](NC(=O)[C@H](CC(C)C)NC(=O)[C@H](CC(=O)O)NC(=O)[C@H](CO)NC(=O)[C@@H](NC(=O)[C@H](CCCNC(=N)N)NC(=O)[C@H](CCSC)NC(=O)[C@H](CO)NC(=O)[C@H](C)NC(=O)[C@H](CCC(=O)O)NC(=O)[C@H](C)NC(=O)[C@H](Cc1c[nH]cn1)NC(=O)CNC(=O)[C@H](CC(C)C)NC(=O)[C@H](CCC(=O)O)NC(=O)[C@H](CC(=O)O)NC(=O)[C@H](CC(C)C)NC(=O)[C@H](CC(C)C)NC(=O)[C@H](CCCNC(=N)N)NC(=O)[C@H](CCSC)NC(=O)[C@@H](NC(=O)[C@H](CCC(=O)O)NC(=O)[C@H](Cc1ccc(O)cc1)NC(=O)[C@@H](NC(=O)[C@H](CCCCN)NC(=O)[C@H](CCC(N)=O)NC(=O)[C@H](CC(C)C)NC(=O)[C@@H](NC(=O)[C@H](Cc1c[nH]c2ccccc12)NC(=O)[C@H](CCC(=O)O)NC(=O)[C@H](CCCCN)NC(=O)[C@H](CC(=O)O)NC(C)=O)[C@@H](C)CC)[C@@H](C)CC)[C@@H](C)CC)C(C)C)C(=O)N[C@@H](Cc1ccc(O)cc1)C(=O)N[C@@H](CCC(=O)O)C(=O)N[C@@H](Cc1ccccc1)C(=O)N[C@@H](CCSC)C(=O)N[C@@H](CCCCN)C(=O)N[C@@H](CCCCN)C(=O)NCC(=O)NCC(=O)NCC(=O)NCC(=O)N[C@@H](CC(=O)O)C(=O)N[C@H]1CSSC[C@@H](C(=O)N[C@H](C(=O)O)[C@@H](C)O)NC(=O)[C@H](Cc2c[nH]c3ccccc23)NC(=O)[C@H](C(C)C)NC(=O)[C@H](CC(C)C)NC(=O)[C@H](CCC(=O)O)NC(=O)CNC(=O)[C@H](CC(C)C)NC(=O)[C@H](Cc2c[nH]cn2)NC(=O)[C@H](Cc2c[nH]c3ccccc23)NC(=O)[C@H](C)NC1=O` [Compound 107], the Kd – broadly, the concentration at which binding is half-saturated – under setting [1] is under 1 pM.
As for “AEASMRVSDLIYEFMKKGDERLLEEAERLLEEVER [Compound 210]”, the “Octet SARS-CoV-2 Spike RBD Protein Binding KD” value (1:1 global fit) is “No Binding”.
Regarding `CC[C@H](C)[C@H](NC(=O)[C@H](CC(C)C)NC(=O)[C@H](CC(=O)O)NC(=O)[C@H](CO)NC(=O)[C@@H](NC(=O)[C@H](CCCNC(=N)N)NC(=O)[C@H](CCSC)NC(=O)[C@H](CO)NC(=O)[C@H](C)NC(=O)[C@H](CCC(=O)O)NC(=O)[C@H](C)NC(=O)[C@H](Cc1c[nH]cn1)NC(=O)CNC(=O)[C@H](CC(C)C)NC(=O)[C@H](CCC(=O)O)NC(=O)[C@H](CC(=O)O)NC(=O)[C@H](CC(C)C)NC(=O)[C@H](CC(C)C)NC(=O)[C@H](CCCNC(=N)N)NC(=O)[C@H](CCSC)NC(=O)[C@@H](NC(=O)[C@H](CCC(=O)O)NC(=O)[C@H](Cc1ccc(O)cc1)NC(=O)[C@@H](NC(=O)[C@H](CCCCN)NC(=O)[C@H](CCC(N)=O)NC(=O)[C@H](CC(C)C)NC(=O)[C@@H](NC(=O)[C@H](Cc1c[nH]c2ccccc12)NC(=O)[C@H](CCC(=O)O)NC(=O)[C@H](CCCCN)NC(=O)[C@H](CC(=O)O)NC(C)=O)[C@@H](C)CC)[C@@H](C)CC)[C@@H](C)CC)C(C)C)C(=O)N[C@@H](Cc1ccc(O)cc1)C(=O)N[C@@H](CCC(=O)O)C(=O)N[C@@H](Cc1ccccc1)C(=O)N[C@@H](CCSC)C(=O)N[C@@H](CCCCN)C(=O)N[C@@H](CCCCN)C(=O)NCC(=O)NCCOCCOCCOCCOCCOCCOCCOCCOCCC(=O)NCCOCCOCCOCCOCCOCCOCCOCCOCCC(=O)NCCOCCOCCOCCOCCOCCOCCOCCOCCC(=O)N[C@@H](CC(=O)O)C(=O)N[C@H]1CSSC[C@@H](C(=O)N[C@H](C(=O)O)[C@@H](C)O)NC(=O)[C@H](Cc2c[nH]c3ccccc23)NC(=O)[C@H](C(C)C)NC(=O)[C@H](CC(C)C)NC(=O)[C@H](CCC(=O)O)NC(=O)CNC(=O)[C@H](CC(C)C)NC(=O)[C@H](Cc2c[nH]cn2)NC(=O)[C@H](Cc2c[nH]c3ccccc23)NC(=O)[C@H](C)NC1=O` [Compound 168], the Kd under setting [2] was 463 pM.
The same measure, in the same setting: with “DKEWILQKIYEIMRLLDELGHAEASMRVSDLIYEFMKKGDERLLEEAERLLEEVERGQAPGQAPDCAWHLGELVWCT-NH2 (disulfide 66-76) [Compound 174]” the figure was 787 pM.
In the case of `CC[C@H](C)[C@H](NC(=O)[C@H](Cc1c[nH]c2ccccc12)NC(=O)[C@H](CCC(=O)O)NC(=O)[C@H](CCCCN)NC(=O)[C@H](CC(=O)O)NC(C)=O)C(=O)N[C@@H](CC(C)C)C(=O)N[C@@H](CCC(N)=O)C(=O)N[C@@H](CCCCN)C(=O)N[C@H](C(=O)N[C@@H](Cc1ccc(O)cc1)C(=O)N[C@@H](CCC(=O)O)C(=O)N[C@H](C(=O)N[C@@H](CCSC)C(=O)N[C@@H](CCCNC(=N)N)C(=O)N[C@@H](CC(C)C)C(=O)N[C@@H](CC(C)C)C(=O)N[C@@H](CC(=O)O)C(=O)N[C@@H](CCC(=O)O)C(=O)N[C@@H](CC(C)C)C(=O)NCC(=O)N[C@@H](Cc1c[nH]cn1)C(=O)N[C@@H](C)C(=O)N[C@@H](CCC(=O)O)C(=O)N[C@@H](C)C(=O)N[C@@H](CO)C(=O)N[C@@H](CCSC)C(=O)N[C@@H](CCCNC(=N)N)C(=O)N[C@H](C(=O)N[C@@H](CO)C(=O)NCCOCCOCCOCCOCCOCCOCCOCCOCCC(=O)NCCOCCOCCOCCOCCOCCOCCOCCOCCC(=O)N[C@@H](CC(=O)O)C(=O)N[C@H]1CSSC[C@@H](C(=O)N[C@H](C(N)=O)[C@@H](C)O)NC(=O)[C@H](Cc2c[nH]c3ccccc23)NC(=O)[C@H](C(C)C)NC(=O)[C@H](CC(C)C)NC(=O)[C@H](CCC(=O)O)NC(=O)CNC(=O)[C@H](CC(C)C)NC(=O)[C@H](Cc2c[nH]cn2)NC(=O)[C@H](Cc2c[nH]c3ccccc23)NC(=O)[C@H](C)NC1=O)C(C)C)[C@@H](C)CC)[C@@H](C)CC` [Compound 153], the “Octet SARS-CoV-2 Spike RBD Protein Binding KD” value (1:1 global fit) was “Weak Binding”.
Same read-out and setting: with `CC[C@H](C)[C@H](NC(=O)[C@H](Cc1c[nH]c2ccccc12)NC(=O)[C@H](CCC(=O)O)NC(=O)[C@H](CCCCN)NC(=O)[C@H](CC(=O)O)NC(C)=O)C(=O)N[C@@H](CC(C)C)C(=O)N[C@@H](CCC(N)=O)C(=O)N[C@@H](CCCCN)C(=O)N[C@H](C(=O)N[C@@H](Cc1ccc(O)cc1)C(=O)N[C@@H](CCC(=O)O)C(=O)N[C@H](C(=O)N[C@@H](CCSC)C(=O)N[C@@H](CCCNC(=N)N)C(=O)N[C@@H](CC(C)C)C(=O)N[C@@H](CC(C)C)C(=O)N[C@@H](CC(=O)O)C(=O)N[C@@H](CCC(=O)O)C(=O)N[C@@H](CC(C)C)C(=O)NCC(=O)N[C@@H](Cc1c[nH]cn1)C(=O)N[C@@H](C)C(=O)N[C@@H](CCC(=O)O)C(=O)N[C@@H](C)C(=O)N[C@@H](CO)C(=O)NCCOCCOCCOCCOCCOCCOCCOCCOCCC(=O)NCCOCCOCCOCCOCCOCCOCCOCCOCCC(=O)N[C@@H](CC(=O)O)C(=O)N[C@H]1CSSC[C@@H](C(=O)N[C@H](C(N)=O)[C@@H](C)O)NC(=O)[C@H](Cc2c[nH]c3ccccc23)NC(=O)[C@H](C(C)C)NC(=O)[C@H](CC(C)C)NC(=O)[C@H](CCC(=O)O)NC(=O)CNC(=O)[C@H](CC(C)C)NC(=O)[C@H](Cc2c[nH]cn2)NC(=O)[C@H](Cc2c[nH]c3ccccc23)NC(=O)[C@H](C)NC1=O)[C@@H](C)CC)[C@@H](C)CC` [Compound 152] the entry was “Weak Binding”.
Consider “SDKEWILQKIYEIMRLLDELGHAPASMRVSDLIYEFMKKG-NH2 [Compound 192]”, for which the Kd under setting [1] is under 1 pM.
Take “Ac-DKEWILQKIYEIMRLLDELGHAEASMRVSDLIYEFMKKGDERLLEEAERLLEEVERPASPASPASPASDCAWHLGELVWCT (disulfide 70-80) [Compound 165]”: under setting [2], the Kd is under 1 pM.
Same read-out and setting: to “Ac-DKEWILQKIYEIMRLLDELGHAEASMRVSDLIYEFMKKGPASPASPASPASDCAWHLGELVWCT (disulfide 53-63) [Compound 167]” belongs 327 pM.
With `CC[C@H](C)[C@H](NC(=O)[C@H](CCCCN)NC(=O)[C@H](CCC(N)=O)NC(C)=O)C(=O)N[C@@H](Cc1ccc(O)cc1)C(=O)N[C@@H](CCC(=O)O)C(=O)N[C@H](C(=O)N[C@H]1CSSC[C@@H](C(=O)N[C@@H](CO)C(=O)N[C@@H](CC(=O)O)C(=O)N[C@@H](CC(C)C)C(=O)N[C@H](C(=O)N[C@@H](Cc2ccc(O)cc2)C(=O)N[C@@H](CCC(=O)O)C(=O)N[C@@H](Cc2ccccc2)C(=O)N[C@@H](CCSC)C(=O)N[C@@H](CCCCN)C(=O)N[C@@H](CCCCN)C(=O)NCC(=O)O)[C@@H](C)CC)NC(=O)[C@H](CCCNC(=N)N)NC(=O)[C@H](CCSC)NC(=O)[C@H](CO)NC(=O)[C@H](C)NC(=O)[C@H](CCC(=O)O)NC(=O)[C@H](C)NC(=O)[C@H](Cc2cnc[nH]2)NC(=O)CNC(=O)[C@H](CC(C)C)NC(=O)[C@H](CCC(=O)O)NC(=O)[C@H](CC(=O)O)NC(=O)[C@H](CC(C)C)NC(=O)[C@H](CC(C)C)NC(=O)[C@H](CCCNC(=N)N)NC1=O)[C@@H](C)CC` [Compound 132] (Ac-QKIYEICRLLDELGHAEASMRCSDLIYEFMKKG-OH; disulfide 7-22), the “Octet SARS-CoV-2 Spike RBD Protein Binding KD” value (1:1 global fit) was “Weak Binding”.
With `CC[C@H](C)[C@H](NC(=O)[C@H](CC(C)C)NC(=O)[C@H](CC(=O)O)NC(=O)[C@H](CO)NC(=O)[C@@H](NC(=O)[C@H](CCCNC(=N)N)NC(=O)[C@H](CCSC)NC(=O)[C@H](CO)NC(=O)[C@H](C)NC(=O)[C@H](CCC(=O)O)NC(=O)[C@H](C)NC(=O)[C@H](Cc1c[nH]cn1)NC(=O)CNC(=O)[C@H](CC(C)C)NC(=O)[C@H](CCC(=O)O)NC(=O)[C@H](CC(=O)O)NC(=O)[C@H](CC(C)C)NC(=O)[C@H](CC(C)C)NC(=O)[C@H](CCCNC(=N)N)NC(=O)[C@H](CCSC)NC(=O)[C@@H](NC(=O)[C@H](CCC(=O)O)NC(=O)[C@H](Cc1ccc(O)cc1)NC(=O)[C@@H](NC(=O)[C@H](CCCCN)NC(=O)[C@H](CCC(N)=O)NC(=O)[C@H](CC(C)C)NC(=O)[C@@H](NC(=O)[C@H](Cc1c[nH]c2ccccc12)NC(=O)[C@H](CCC(=O)O)NC(=O)[C@H](CCCCN)NC(=O)[C@@H](N)CC(=O)O)[C@@H](C)CC)[C@@H](C)CC)[C@@H](C)CC)C(C)C)C(=O)N[C@@H](Cc1ccc(O)cc1)C(=O)N[C@@H](CCC(=O)O)C(=O)N[C@@H](Cc1ccccc1)C(=O)N[C@@H](CCSC)C(=O)N[C@@H](CCCCN)C(=O)N[C@@H](CCCCN)C(=O)NCC(=O)N[C@@H](CCC(N)=O)C(=O)N[C@@H](C)C(=O)N1CCC[C@H]1C(=O)N[C@@H](CC(=O)O)C(=O)N[C@H]1CSSC[C@@H](C(=O)N[C@H](C(=O)O)[C@@H](C)O)NC(=O)[C@H](Cc2c[nH]c3ccccc23)NC(=O)[C@H](C(C)C)NC(=O)[C@H](CC(C)C)NC(=O)[C@H](CCC(=O)O)NC(=O)CNC(=O)[C@H](CC(C)C)NC(=O)[C@H](Cc2c[nH]cn2)NC(=O)[C@H](Cc2c[nH]c3ccccc23)NC(=O)[C@H](C)NC1=O` [Compound 108], the Kd under setting [1] is under 1 pM.
“EIMRLLDELGHAEASMRVSDLIYEFMKKGDERLLEEAERLLEEVER [Compound 212]”: where the note is “1:1 global fit”, the “Octet SARS-CoV-2 Spike RBD Protein Binding KD” value is reported as “No Binding”.
